# Reference: the supplement of paper PMC12217912
# This is one part of the list. Sequences were assembled here from the parent chain. Values near 0.05 are background.
# B1: TEV protease; numbered along this chain (parent)
# chain: MGESLFKGPRDYNPISSSICHLTNESDGHTTSLYGIGFGPFIITNKHLFRRNNGTLVVQSLHGVFKVKDTTTLQQHLVDGRDMIIIRMPKDFPPFPQKLKFREPQREERICLVTTNFQTKSMSSMVSDTSCTFPSGDGIFWKHWIQTKDGQCGSPLVSTRDGFIVGIHSASNFTNTNNYFTSVPKNFMELLTNQEAQQWVSGWRLNADSVLWGGHKVFMVKPEEPFQPVKEATQL
# Variants of: B1
# Experiment: raw area under fraction-flipped curve 0-4 h after induction (AUC4h, not background-subtracted), DNA-recorder readout of cleavage of the substrate (dimensionless); higher = more cleavage of the substrate by the protease variant
# Conditions: temperature: 34 °C; time window: 0-4 h after rhamnose induction
# Method: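 In vivo DNA recorder in E. coli TOP10(DE3) ΔrhaA at 34 °C. Each TEVp single-site mutant (parent TEVp 0) is paired with a single-site variant of the 7-mer TEVs (canonical ENLYFQ|S). The substrate sits between flexible linkers in a Bxb1-sfGFP-TEVs-SsrA fusion, so cleavage stabilises Bxb1 and speeds flipping of a recombination array, read by NGS. The value is the raw area under the fraction-flipped curve over 0-4 h after rhamnose induction (AUC4h), with ≥20 reads per time point. It is not background-subtracted; inactive controls average about 0.047.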
# 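Also: Bxb1 expression induced with 0.2% (w/v) L-rhamnose at OD600 near 0.5, cultures sampled hourly, flipped fraction per protease–substrate barcode pair counted by paired-end Illumina sequencing.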
variant,measurement,value
MGESLFKGPRDYNPISSSICHLTNESDGHTTSLYGIGFGPFIITNKHLFRRNNGTLVVQSLHGVFKVKDTTTLQQHLVDGRDMIIIRMPKDFPPFPQKLKFREPQREERICLVTTNFQTKSMSSMVSDTSCTFPSGDGIFWKHWIQTKDGQCGSPLVSTRDGFIVGIHSASNFTNTNNYFQSVPKNFMELLTNQEAQQWVSGWRLNADSVLWGGHKVFMVKPEEPFQPVKEATQL [T181Q],area with substrate ENLYAQS,0.0533
same,area with substrate ENLYDQS,0.0585
same,area with substrate ENLYGQS,0.054
same,area with substrate ENLYKQS,0.0573
same,area with substrate ENLYMQS,0.0644
same,area with substrate ENLYPQS,0.0561
same,area with substrate ENLYSQS,0.0667
same,area with substrate ENLYWQS,0.0503
MGESLFKGPRDYNPISSSICHLTNESDGHTTSLYGIGFGPFIITNKHLFRRNNGTLVVQSLHGVFKVKDTTTLQQHLVDGRDMIIIRMPKDFPPFPQKLKFREPQREERICLVTTNFQTKSMSSMVSDTSCTFPSGDGIFWKHWIQTKDGQCGSPLVSTRDGFIVGIHSASNFTNTNNYFTSVPKNFMEKLTNQEAQQWVSGWRLNADSVLWGGHKVFMVKPEEPFQPVKEATQL [L190K],area with substrate ENLYAQS,0.0722
same,area with substrate ENLYCQS,0.0848
same,area with substrate ENLYDQS,0.0629
same,area with substrate ENLYEQS,0.0758
same,area with substrate ENLYGQS,0.0768
same,area with substrate ENLYKQS,0.0703
same,area with substrate ENLYLQS,0.0723
same,area with substrate ENLYMQS,0.0835
same,area with substrate ENLYNQS,0.0666
same,area with substrate ENLYPQS,0.0743
same,area with substrate ENLYQQS,0.0496
same,area with substrate ENLYRQS,0.0562
same,area with substrate ENLYTQS,0.0491
same,area with substrate ENLYWQS,0.0633
MGESLFKGPRDYNPISSSICHLTNESDGHTTSLYGIGFGPFIITNKHLFRRNNGTLVVQSLHGVFKVKDTTTLQQHLVDGRDMIIIRMPKDFPPFPQKLKFREPQREERICLVTTNFQTKSMSSMVSDTSCTFPSGDGIFWKHWIQTKDGQCGSPLVSTRDGFIVGPHSASNFTNTNNYFTSVPKNFMELLTNQEAQQWVSGWRLNADSVLWGGHKVFMVKPEEPFQPVKEATQL [I167P],area with substrate ENLYAQS,0.0927
same,area with substrate ENLYDQS,0.0537
same,area with substrate ENLYEQS,0.0655
same,area with substrate ENLYHQS,0.0671
same,area with substrate ENLYIQS,0.0626
same,area with substrate ENLYKQS,0.053
same,area with substrate ENLYPQS,0.0505
same,area with substrate ENLYRQS,0.054
same,area with substrate ENLYSQS,0.0392
same,area with substrate ENLYVQS,0.062
same,area with substrate ENLYWQS,0.0567
same,area with substrate ENLYYQS,0.0431
MGESLFKGPRDYNPISSSICHLTNESDGHTTSLYGIGFGPFIITNKHLFRRNNGTLVVQSLHGVFKVKDTTTLQQHLVDGRDMIIIRMPKDFPPFPQKLKFREPQREERICLVTTNFQTKSMSSMVSDTSCTFPSGDGIFWKHWIQTKDGQCGSPLVSTRDGFIVGLHSASNFTNTNNYFTSVPKNFMELLTNQEAQQWVSGWRLNADSVLWGGHKVFMVKPEEPFQPVKEATQL [I167L],area with substrate ENLYAQS,0.0752
same,area with substrate ENLYCQS,0.0875
same,area with substrate ENLYDQS,0.0549
same,area with substrate ENLYEQS,0.0632
same,area with substrate ENLYGQS,0.0632
same,area with substrate ENLYHQS,0.0661
same,area with substrate ENLYIQS,0.106
same,area with substrate ENLYKQS,0.0564
same,area with substrate ENLYLQS,0.0795
same,area with substrate ENLYMQS,0.0684
same,area with substrate ENLYNQS,0.0662
same,area with substrate ENLYQQS,0.0547
same,area with substrate ENLYRQS,0.061
same,area with substrate ENLYSQS,0.0812
same,area with substrate ENLYWQS,0.0492
same,area with substrate ENLYYQS,0.0616
MGESLFKGPRDYNPISSSICHLTNESDGHTTSLYGIGFGPFIITNKHLFRRNNGTLVVQSLHGVFKVKDTTTLQQHLVDGRDMIIIRMPKDFPPFPQKLKFREPQREERICLVTTNFQTKSMSSMVSDTSCTFPSGDGIFWKHWIQTKDGQCGSPLVSTRDGFIVGIHSASNFTNTNNYFTSVPKNSMELLTNQEAQQWVSGWRLNADSVLWGGHKVFMVKPEEPFQPVKEATQL [F187S],area with substrate ENLYAQS,0.0614
same,area with substrate ENLYDQS,0.0705
same,area with substrate ENLYEQS,0.0534
same,area with substrate ENLYGQS,0.0618
same,area with substrate ENLYHQS,0.0692
same,area with substrate ENLYIQS,0.0756
same,area with substrate ENLYKQS,0.0397
same,area with substrate ENLYMQS,0.0581
same,area with substrate ENLYNQS,0.076
same,area with substrate ENLYQQS,0.0592
same,area with substrate ENLYRQS,0.0569
same,area with substrate ENLYTQS,0.0737
same,area with substrate ENLYVQS,0.0643
same,area with substrate ENLYWQS,0.0713
MGESLFKGPRDYNPISSSICHLTNESDGHTTSLYGIGFGPFIITNKHLFRRNNGTLVVQSLHGVFKVKDTTTLQQHLVDGRDMIIIRMPKDFPPFPQKLKFREPQREERICLVTTNFQTKSMSSMVSDTSCTFPSGDGIFWKHWIQTKDGQCGSPLVSTRDGFIVGIHSASNFTNTRNYFTSVPKNFMELLTNQEAQQWVSGWRLNADSVLWGGHKVFMVKPEEPFQPVKEATQL [N177R],area with substrate ENLYAQS,0.0958
same,area with substrate ENLYCQS,0.112
same,area with substrate ENLYDQS,0.0478
same,area with substrate ENLYEQS,0.0793
same,area with substrate ENLYHQS,0.0723
same,area with substrate ENLYIQS,0.172
same,area with substrate ENLYKQS,0.0515
same,area with substrate ENLYNQS,0.0799
same,area with substrate ENLYPQS,0.0737
same,area with substrate ENLYRQS,0.0627
same,area with substrate ENLYTQS,0.0995
same,area with substrate ENLYWQS,0.0963
MGESLFKGPRDYNPISSSICHLTNESDGHTTSLYGIGFGPFIITNKHLFRRNNGTLVVQSLHGVFKVKDTTTLQQHLVDGRDMIIIRMPKDFPPFPQKLKFREPQREERICLVTTNFQTKSMSSMVSDTSCTFPSGDGIFWKHWIQTKDGQCGSPLVSTRDGFIVGIHSASNFTNTNNYFTSVPRNFMELLTNQEAQQWVSGWRLNADSVLWGGHKVFMVKPEEPFQPVKEATQL [K185R],area with substrate ENLYAQS,0.0858
same,area with substrate ENLYEQS,0.0755
same,area with substrate ENLYGQS,0.0711
same,area with substrate ENLYHQS,0.0765
same,area with substrate ENLYKQS,0.0572
same,area with substrate ENLYMQS,0.0824
same,area with substrate ENLYNQS,0.0731
same,area with substrate ENLYPQS,0.0829
same,area with substrate ENLYYQS,0.0639
MGESLFKGPRDYNPISSSICHLTNESDGHTTSLYGIGFGPFIITNKHLFRRNNGTLVVQSLHGVFKVKDTTTLQQHLVDGRDMIIIRMPKDFPPFPQKLKFREPQREERICLVTTNFQTKSMSSMVSDTSCTFPSGDGIFWKHWIQTKDGQCGSPLVSTRDGFIVGIHSASNFTNTNNYFTSVPYNFMELLTNQEAQQWVSGWRLNADSVLWGGHKVFMVKPEEPFQPVKEATQL [K185Y],area with substrate ENLYAQS,0.0976
same,area with substrate ENLYDQS,0.0584
same,area with substrate ENLYGQS,0.069
same,area with substrate ENLYHQS,0.0621
same,area with substrate ENLYIQS,0.0941
same,area with substrate ENLYKQS,0.0332
same,area with substrate ENLYMQS,0.0878
same,area with substrate ENLYNQS,0.0661
same,area with substrate ENLYPQS,0.0802
same,area with substrate ENLYQQS,0.075
same,area with substrate ENLYRQS,0.0491
same,area with substrate ENLYSQS,0.0599
same,area with substrate ENLYTQS,0.0819
same,area with substrate ENLYVQS,0.0481
same,area with substrate ENLYWQS,0.079
MGESLFKGPRDYNPISSSICHLTNESDGHTTSLYGIGFGPFIITNKHLFRRNNGTLVVQSLHGVFKVKDTTTLQQHLVDGRDMIIIRMPKDFPPFPQKLKFREPQREERICLVTTNFQTKSMSSMVSDTSCTFPSGDGIFWKHWIQTKDGQCGSPLVSTRDGFIVGIHSASNFTNTNNYFTSVPDNFMELLTNQEAQQWVSGWRLNADSVLWGGHKVFMVKPEEPFQPVKEATQL [K185D],area with substrate ENLYAQS,0.0699
same,area with substrate ENLYDQS,0.0516
same,area with substrate ENLYEQS,0.0503
same,area with substrate ENLYGQS,0.0351
same,area with substrate ENLYHQS,0.0654
same,area with substrate ENLYNQS,0.0446
same,area with substrate ENLYPQS,0.071
